Assay results taken from PubChem BioAssay AID624417 (National Center for Advancing Translational Sciences (NCATS), 2012).
The campaign covered roughly 410,000 compounds. About 6,400 (1.6%) were called active. Inconclusive results, whose numbers are uncertain, are shown with a selection of clear calls. Calls come from the whole dose curve; as a rule, active = well fitted inhibition curve with a large enough effect; inconclusive = small, poorly fitted or top-dose-only effect; inactive = no such curve, though single readings can be large or run the other way. No potency is given beside an inconclusive call; the fits are too rough.

What follows are compounds tested against Glucagon-like peptide 1 receptor (Homo sapiens) (UniProt P43220) (assay: qHTS of GLP-1 Receptor Inverse Agonists (Inhibition Mode)). Settings: HEK293 GLP-1R CRE-luciferase, luminescence, 24 h, GLP-1R form is constitutively active; series mostly up to 38.3 µM.
UniProt P43220, sequence (P43220 whole entry, looked up): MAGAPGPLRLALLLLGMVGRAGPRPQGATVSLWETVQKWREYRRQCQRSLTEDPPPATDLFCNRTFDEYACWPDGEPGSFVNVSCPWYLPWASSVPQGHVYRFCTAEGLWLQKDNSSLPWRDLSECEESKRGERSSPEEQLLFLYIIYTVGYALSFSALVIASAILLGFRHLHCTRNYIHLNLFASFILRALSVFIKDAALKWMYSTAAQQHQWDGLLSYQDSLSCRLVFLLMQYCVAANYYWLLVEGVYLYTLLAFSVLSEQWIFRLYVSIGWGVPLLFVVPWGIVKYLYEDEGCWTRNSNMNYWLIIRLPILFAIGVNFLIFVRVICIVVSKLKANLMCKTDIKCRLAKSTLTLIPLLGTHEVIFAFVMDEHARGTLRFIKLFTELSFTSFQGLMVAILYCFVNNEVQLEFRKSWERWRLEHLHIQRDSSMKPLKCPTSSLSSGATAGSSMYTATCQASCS
How it was run: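 Stable HEK293 clone (constitutively active GLP-1R + cAMP-response luciferase); 200 cells/uL plated, 12 h pre-culture, compound 24 hr, 37 deg C/5% CO2; detection reagent 12 min RT; luminescence.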
Note: nearly all actives have a fitted effect of over 55% in size.
Potency is the fitted concentration of half-maximal effect; tags give direction and shape of the fitted curve.

SMILES | Potency
Cc1cc(-c2ccc(C)c(S(=O)(=O)NC(C)Cc3ccco3)c2)on1 (centres undefined) | inconclusive [inhibitor, single point]
CCOC(=O)C1=C(N)Oc2cc(O)ccc2C1c1cccc(Cl)c1 (centres undefined) | inconclusive [inhibitor, partial curve, poor fit]
CCOc1ccc(NC(=S)Nc2ccc3nsnc3c2)cc1 | inactive
COc1ccc(-n2ccc3ccccc32)cc1 | inconclusive [inhibitor, single point]
Clc1cccc(Sc2ccc(-c3ccccn3)s2)c1 | inconclusive [inhibitor, single point]
Cc1oc2c(c1C(=O)Nc1ccccc1Br)C1=NCCN1C=N2 | inconclusive [inhibitor, single point]
CCOC(=O)[C@]12CCC=C1N(Cc1ccc(Cl)cc1Cl)C(=O)[C@H](CC(=O)N1CCCCC1)C2 | inconclusive [inhibitor, single point]
CC(CO)Nc1nc(SCc2ccccc2)nc2sc3c(c12)CCC3 (centres undefined) | inconclusive [inhibitor, single point]
COc1ccc(NC(=O)C[C@H]2C(=O)N(Cc3cccnc3)C[C@@H]2Cc2ccccc2)cc1 | inactive
O=C(CC1C(=O)NCCN1C(=O)Nc1ccc(C(F)(F)F)cc1)Nc1ccc(F)cc1 (centres undefined) | inconclusive [inhibitor, partial curve, poor fit]
Cc1c(C(=O)Nc2cccc(F)c2)oc2c1-c1nn(Cc3c(F)cccc3Cl)cc1CC2 | inconclusive [inhibitor, single point]
Cc1cc(C)cc(-n2c3nc4ccccc4nc3c3c(=O)n(Cc4ccco4)cnc32)c1 | inactive
CCOc1cc(/C=N/NC(=O)CSc2nncn2C)ccc1OC(=O)c1ccc(Cl)cc1 | inactive
COc1ccc(-c2ccc(C(=O)NCc3ccc(N(C)C)cc3)c3occc23)c(C)c1 | inconclusive [inhibitor, single point]
O=C(CN1C(=O)c2ccccc2S1(=O)=O)Nc1ncccn1 | inactive
CCCNC(=O)CN1C(=O)COc2ccc(S(=O)(=O)N3CC(C)CC(C)C3)cc21 (centres undefined) | inconclusive [inhibitor, single point]
O=C(OCC(=O)N(Cc1ccccc1)Cc1ccccc1)c1ccccc1O | inconclusive [inhibitor, partial curve, poor fit]
Cc1ccccc1OCCOC(=O)c1cc(S(=O)(=O)N2CCCCC2)ccc1N1CCOCC1 | inconclusive [inhibitor, partial curve, poor fit]
S=c1[nH]nc(Cc2n[nH]c(=S)n2-c2ccccc2)n1-c1ccccc1 | inactive
COc1ccccc1NC(=O)C1CCN(C(=O)c2ccc(C(C)(C)C)cc2)CC1 | inconclusive [inhibitor, single point]
COc1ccc(Cl)cc1NC(=O)CN(C)C(=O)CCC(=O)c1cc(C)sc1C | inconclusive [inhibitor, single point]
O=C(C1COc2ccccc2O1)N1CCN(c2nc3c(F)cccc3s2)CC1 (centres undefined) | inconclusive [inhibitor, single point]

SMILES | Potency
O=C(CNC(=O)c1[nH]cnc1C(=O)NC(c1ccccc1)c1ccccc1)OCc1ccccc1 | inconclusive [inhibitor, partial curve, poor fit]
COc1cccc(C(c2sc3nc(-c4ccco4)nn3c2O)N2CCOCC2)c1 (centres undefined) | inactive
COc1ccc(NS(=O)(=O)c2cc(NC(=O)c3sccc3C)ccc2N2CCOCC2)cc1 | inconclusive [inhibitor, partial curve, poor fit]
CC1(C(=O)NCc2ccc(F)c(F)c2)Cc2c(-c3cccc(C(F)(F)F)c3)ccnc2O1 (centres undefined) | active: 10 µM
Cc1sc2ncnc(NCC(c3ccccc3)N(C)C)c2c1C (centres undefined) | inconclusive [inhibitor, single point]
CC1SC(c2ccc(F)cc2)N(CCc2ccccc2)C1=O (centres undefined) | inconclusive [inhibitor, partial curve]
O=C(Nc1nc2ccc(Cl)cc2s1)c1ccco1 | inconclusive [inhibitor, single point]
C[C@@H]1CN([C@H](C)CO)C(=O)CCCn2nncc2CO[C@@H]1CN(C)S(=O)(=O)c1cccc(C#N)c1 | inactive
O=C(NC1=NCCS1)NC12CC3CC(CC(C3)C1)C2 | inconclusive [inhibitor, single point]
CCc1nc2ccc(C(=O)NCCCn3ccnc3)cn2c1N(C)CCCc1ccccc1 | inconclusive [inhibitor, full curve, poor fit]
Cc1cc(C)c(C#N)c(SCc2cn3c(C)cccc3n2)n1 | inactive
NC(=O)C1(NC2CCCCC2)CCN(Cc2ccccc2)CC1 | inconclusive [inhibitor, single point]
Cc1ccc(S(=O)(=O)N2[C@@H](c3cccc(Cl)c3)C(C(=O)O)=CC[C@H]2c2ccc(Cl)c(Cl)c2)cc1 | inconclusive [inhibitor, partial curve, poor fit]
O=C(CSc1nnc(-c2cccs2)n1Cc1ccco1)Nc1ccc2c(c1)OCO2 | inconclusive [inhibitor, partial curve, poor fit]
CCC1(C)Cc2c(sc3[nH]c(=S)n(Cc4ccccc4)c(=O)c23)CO1 (centres undefined) | inconclusive [inhibitor, partial curve, poor fit]
Cc1c(NS(=O)(=O)c2ccccc2)cc(Cl)c(O)c1C | inactive
COc1ccc(NC(=S)N(CCc2c(C)[nH]c3ccc(C)cc23)Cc2cccnc2)cc1 | inconclusive [inhibitor, partial curve, poor fit]
COCCCNC(=O)c1c(N)n(-c2cccc(S(N)(=O)=O)c2)c2nc3ccccc3nc12 | inconclusive [inhibitor, single point]
COC(=O)c1ccccc1-c1ccc(C(c2c(C)[nH][nH]c2=O)c2c(C)[nH][nH]c2=O)o1 | inconclusive [inhibitor, single point]
CN(Cc1ccccc1)C(=O)[C@@H]1CCCN1C(=O)[C@@H]1CCCN1C(=O)c1cccc2ccccc12 | inactive
O=C1NC2(CCCCC2)C(=O)N1CC(=O)N(Cc1ccccc1)c1ccccc1 | inconclusive [inhibitor, partial curve, poor fit]
CCn1c2ccccc2c2nnc(SCc3ccccc3)nc21 | inconclusive [inhibitor, partial curve, poor fit]

SMILES | Potency
O=C(COC(=O)c1c[nH]c2ccccc12)Nc1cccc(F)c1 | inconclusive [inhibitor, full curve, poor fit]
Cc1oc2ccc(O)c(CN3CCN(Cc4ccccc4)CC3)c2c1C(=O)Nc1ccccc1 | inconclusive [inhibitor, single point]
COc1cc(-c2cc(C(=O)NCc3ccc(S(N)(=O)=O)cc3)c3ccccc3n2)cc(OC)c1OC | inconclusive [inhibitor, partial curve, poor fit]
CN(C)c1ccc(CNC(=O)CN2C(=O)c3cccnc3Oc3ccc(Cl)cc32)cc1 | inactive
CCCc1c(C)c2ccccc2[nH]c1=O | inactive
Nc1sc(-c2ccccc2)cc1C(=O)NCCc1c[nH]c2ccccc12 | inconclusive [inhibitor, single point]
CC1Cc2ccccc2N1CC(=O)c1c(N)n(Cc2ccccc2)c(=O)n(C)c1=O (centres undefined) | inconclusive [inhibitor, single point]
CCN(c1ccccc1)S(=O)(=O)c1ccc(Cl)c(NC(=O)COC(=O)C2CC2C)c1 (centres undefined) | inconclusive [inhibitor, partial curve, poor fit]
CCN(CC(=O)Nc1ccccc1SC)Cc1nc2ccccc2c(=O)[nH]1 | inconclusive [inhibitor, full curve, poor fit]
O=C(CSc1nc(=O)n2cc(Cl)ccc2n1)NCCc1ccccc1 | inactive
COc1ccc(-c2cc3c(=O)n(CC(=O)Nc4ccc(Br)c(C)c4)ccn3n2)cc1OC | inactive
CC1C(=O)N2CCCc3cc(NC(=O)C(=O)NCCc4c[nH]c5ccccc45)cc1c32 (centres undefined) | inconclusive [inhibitor, single point]
CCN(CC)CCC#CC1(O)c2ccccc2-c2ccccc21 | inconclusive [inhibitor, single point]
COCCNc1nc2ccccc2nc1NS(=O)(=O)c1ccc(C)cc1C | inactive
COc1ccc(C2(c3ccc(OC)cc3)NC(=O)N(CC(=O)N(C)c3ccccc3)C2=O)cc1 | inconclusive [inhibitor, single point]
CC(C)Oc1ccc(C2CC(=O)N(c3ccc(N(C)C)cc3)C2=O)cc1 (centres undefined) | inconclusive [inhibitor, full curve]
C[C@H](CO)N1C[C@H](C)[C@@H](CN(C)C(=O)Nc2ccccc2)Oc2ncc(C#CC3CCCCC3)cc2C1=O | inconclusive [inhibitor, single point]
COc1cccc2c1OCC(C(=O)Nc1nccs1)=C2 | inactive
CC(C)(C)c1ccc(-c2cn(-c3ccc(Br)cc3)c3[n+]2CCCS3)cc1 | inconclusive [inhibitor, partial curve, poor fit]
CC1COc2ccccc2N1S(=O)(=O)c1cc(Cl)ccc1Cl (centres undefined) | inconclusive [inhibitor, single point]
